Measurements published in PubChem BioAssay AID588855 (National Center for Advancing Translational Sciences (NCATS), 2011).
“And” between values parts separate entries of the source, which are not always exact repeats. Identical values can stand only once. Out of some 410,000 compounds screened, about 5,000 (1.2%) were called active. The shares of active, inactive and inconclusive entries below differ from those in the screen. Calls follow the shape of the dose curve; as a rule, active = well fitted inhibition curve with a large enough effect; inconclusive = small, poorly fitted or top-dose-only effect; inactive = no such curve, though single readings can be large or run the other way. Where the call is inconclusive, the potency comes from a doubtful curve fit.

Assay: qHTS for Inhibitors of TGF-b; also: nearly all actives have a fitted effect of over 65% in size
Settings: HepG2 CAGA-GFP TGF-b/SMAD3 reporter, GFP fluorescence, 18 h, TGF-beta stimulated, 500 pg/mL final; series mostly up to 46.1 µM; activity, negative = inhibition: at the top concentration
Procedure, shortened: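 First, reporter cells (HEPG2 CAGA-GFP) rested 2 h at 37 degrees C. Next, compounds were pinned in and TGF-beta added to 500 pg/mL final. After 18 h, GFP was imaged per cell and summed per well.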
% is scaled to controls: 0 for no effect and ±100 for the full control effect; potency is read from the fitted curve at half-maximal effect; tags tell the direction and shape of the fitted curve.

Row | Structure (SMILES) | activity, negative = inhibition | Potency
1 | COc1cc(OC)nc(C(NC(=O)C2CCN(Cc3ccc(Oc4ccccc4)cc3)CC2)c2ccccc2C)n1 (stereo not given) | inactive: -27.6% | 
2 | CCc1ccc(S(=O)(=O)NCc2nc3cccnc3n2Cc2ccccc2Cl)cc1 |  | inconclusive: 11.2 µM [inhibitor, single point]
3 | CCCOc1ccc(CNC(=O)Cn2cc3c(n2)-c2c(oc(C(=O)N4CCOCC4)c2C)CC3)cc1 |  | inconclusive: 31.6 µM [inhibitor, single point]
4 | Cc1cc(NC(=O)CCC(=O)N(CC(=O)NCC2CCCO2)c2ccc(F)c(Cl)c2)no1 (stereo not given) | inactive: 7.94% | 
5 | Brc1ccc2nc(C3CCCCC3)c(Cc3ccccc3)n2c1 |  | inconclusive: 14.1 µM [inhibitor, single point]
6 | Cc1cc(C)cc(Nc2ncnc3onc(-c4ccc(F)cc4)c23)c1 |  | inconclusive: 20 µM [inhibitor, single point]
7 | O=CN/N=C/c1c(O)ccc2ccccc12 | inactive: 2.19% | 
8 | COc1ccc(N=C2S/C(=C\c3cc(C)n(C)c3C)C(=O)N2C)cc1 |  | inconclusive: 4.47 µM [inhibitor, full curve, poor fit]
9 | CN(CC(=O)NC(c1ccccc1)c1ccccc1)Cc1nc2ccccc2c(=O)[nH]1 | inactive: 21.7% | 
10 | O=C(CCn1c(=O)[nH]c2ccsc2c1=O)NCc1ccc(F)cc1 |  | inconclusive: 0.794 µM [inhibitor, full curve, poor fit]
11 | O=C(COCc1ccccc1)N[C@@H]1c2ccccc2CC[C@@H]1OCc1ccccc1 |  | inconclusive: 22.4 µM [inhibitor, single point]
12 | CC(=O)c1sc(N/N=C\c2c(O)ccc3ccccc23)nc1C |  | inconclusive: 31.6 µM [inhibitor, single point]
13 | O=c1oc2ccc(Cl)cc2nc1/C=C(\O)c1ccco1 |  | inconclusive: 5.62 µM [inhibitor, single point]
14 | Cc1ccc(C2CC(c3cccc(Br)c3)Nc3nnnn32)cc1 (stereo not given) |  | inconclusive: 14.1 µM [inhibitor, partial curve, poor fit]
15 | COc1ccc(-c2nnc(Nc3ccc(OC)c(C(N)=O)c3)c3ccccc23)cc1 |  | inconclusive: 35.5 µM [inhibitor, single point]
16 | CCOC(=O)c1ccc(NC(=O)NNS(=O)(=O)c2cc(OC)ccc2OC)cc1 | inactive: -0.163% | 
17 | Cn1c(SCC(=O)c2ccc3c(c2)OCO3)nnc1C1COc2ccccc2O1 (stereo not given) | inactive: 26.8% | 
18 | Cn1c(SCC(=O)Nc2ncc(C(F)(F)F)cc2Cl)nnc1-c1ccc(Cl)cc1 | inactive: -4.14% | 
19 | CCCCCCSc1cc(-c2nc3cnccn3c2NCCCC)ccc1OC |  | inconclusive: 28.2 µM [inhibitor, single point]
20 | CCC(CC)C(=O)N1CCc2cc(OC)c(OC)cc2C1COc1ccc(C(=O)OC)cc1 (stereo not given) |  | inconclusive: 14.1 µM [inhibitor, single point]
21 | O=C(NCCN1CCOCC1)c1cccs1 | inactive: -7.45% | 
22 | CCC1(CC)NC(=O)N(CC(=O)OCC(=O)NC(=O)c2ccccc2OC)C1=O | inactive: -10.8% | 

Row | Structure (SMILES) | activity, negative = inhibition | Potency
23 | Oc1ccc(C[C@H]2CNC(=S)N2CC2CCCN2C[C@H](Cc2ccc(O)cc2)N2C[C@H](Cc3ccc(O)cc3)N(CC3CCCCC3)C2=S)cc1 (stereo not given in full) |  | active: 10 µM
24 | CCO/C=N/Nc1nc(C(F)(F)F)nc2c1cnn2Cc1ccccc1 |  | inconclusive: 22.4 µM [inhibitor, partial curve, poor fit]
25 | CC(=O)Nc1ccc(NC(=O)Nc2ccc3c(c2)N(C)C(=O)CS3)cc1 | inactive: -1.05% | 
26 | CN(C)S(=O)(=O)N(CC(=O)NCCSCc1cccc(Cl)c1)c1ccccc1 |  | inconclusive: 17.8 µM [inhibitor, single point]
27 | CCOC(=O)c1ccc(N2C(=O)c3n[nH]c(-c4cccs4)c3C2c2cccc(OC)c2)cc1 (stereo not given) |  | active: 1.78 µM
28 | COc1ccc(CC(=O)Nc2cc(-c3nc4cccnc4s3)ccc2C)cc1 |  | inconclusive: 8.91 µM [inhibitor, partial curve, poor fit]
29 | COc1ccc2c(c1)c(C(C)=O)c(C)n2-c1ccccc1OC | inactive: 26.2% | 
30 | O=C(CSC1=N/C(=C/c2ccc(Cl)c(Cl)c2)C(=O)N1c1ccccc1F)NC1CC1 |  | inconclusive: 25.1 µM [inhibitor, single point]
31 | COc1ccc(/C=N/NC(=O)c2[nH]c3ccc(Br)cc3c2-c2ccccc2)cc1 |  | inconclusive: 0.562 µM [inhibitor, full curve, poor fit]
32 | CC#CCCC(=O)N1C=Cc2ccccc2C1C#N (stereo not given) |  | inconclusive: 1.58 µM [inhibitor, partial curve]
33 | CCOc1ccc(NC(=O)CCc2c(C)nn(-c3ccc(N4CCCCC4)nn3)c2C)cc1 | inactive: -8.93% | 
34 | CCn1c(C)c(C)c2cc(C(=O)N3CCN(c4cccc(C)c4C)CC3)ccc21 |  | inconclusive: 17.8 µM [inhibitor, partial curve, poor fit] and inconclusive: 35.5 µM [inhibitor, single point]
35 | CCN(CC(=O)Nc1ccc(NC(C)=O)cc1)C(=O)CCCc1c[nH]c2ccccc12 | inactive: -3.55% | 
36 | O=C(CSc1cn(CCNC(=O)c2ccccc2F)c2ccccc12)Nc1ccc(F)cc1 |  | inconclusive: 12.6 µM [inhibitor, partial curve, poor fit]
37 | CN(C)c1ccc(-c2csc(C(C)(O)c3ccc(F)c(F)c3)n2)cc1 (stereo not given) |  | inconclusive: 35.5 µM [inhibitor, single point]
38 | Cc1cccc(Nc2nnc(SCC(=O)NCc3cccs3)s2)c1 |  | inconclusive: 35.5 µM [inhibitor, single point]
39 | O=C(Nc1ccon1)C(Sc1ccccc1)c1ccccc1 (stereo not given) |  | inconclusive: 0.562 µM [inhibitor, full curve, poor fit]
40 | COc1cc(/C=N/NS(=O)(=O)c2ccccc2)ccc1OS(=O)(=O)c1ccc(C)cc1 | inactive: -3.23% | 
41 | CCOc1ccc(CNCc2c(C(=O)O)n(Cc3ccc(OC)cc3)c3ccccc23)cc1 |  | inconclusive: 15.8 µM [inhibitor, partial curve, poor fit]
42 | CN(C)S(=O)(=O)c1cccc(NC(=S)N/N=C/c2cc(Br)ccc2O)c1 |  | inconclusive: 14.1 µM [inhibitor, partial curve, poor fit]
43 | COc1ccccc1N1CCN(C(=O)c2cc(-c3ccc(F)cc3)[nH]c2C)CC1 |  | inconclusive: 15.8 µM [inhibitor, single point]
44 | COc1ccccc1-c1cc(C(=O)NCCN2CCOCC2)no1 |  | inconclusive: 35.5 µM [inhibitor, single point]

Row | Structure (SMILES) | activity, negative = inhibition | Potency
45 | COc1cc(C2c3c(-c4c(C)cc(C)cc4O)n[nH]c3C(=O)N2CCCOC(C)C)cc(OC)c1OC (stereo not given) | inactive: 10.1% | 
46 | O=C(O)c1ccc(C=C(c2nc3ccccc3s2)c2nc3ccccc3s2)cc1 |  | inconclusive: 35.5 µM [inhibitor, single point]
47 | CCC1CCCCN1c1cc(C)nc2cc(-c3cccc(C)c3)nn12 (stereo not given) |  | inconclusive: 35.5 µM [inhibitor, single point]
48 | CCc1ccccc1NC(=O)CN1C(=O)COc2ccc(S(=O)(=O)Nc3ccccc3)cc21 |  | inconclusive: 7.08 µM [inhibitor, partial curve]
49 | O=S(=O)(NCCOc1ccccc1Cl)c1ccc2oc3ccccc3c2c1 |  | active: 15.8 µM
50 | O=C(CCC1CCCC1)N1CCN(C(=O)c2cccnc2)CC1 |  | inconclusive: 0.112 µM [inhibitor, full curve, poor fit]
51 | CS(=O)(=O)N(Cc1ccc(C(=O)N2CCc3ccccc3C2)cc1)c1ccccc1 | inactive: -22% | 
52 | CCC1CN(S(=O)(=O)c2ccc3c(c2)NC(=O)CC(=O)N3)c2cc(Cl)ccc2O1 (stereo not given) |  | inconclusive: 11.2 µM [inhibitor, single point]
53 | O=C1c2cccc3cccc(c23)C(=O)C1(O)O |  | inconclusive: 17.8 µM [inhibitor, partial curve, poor fit]
54 | Cc1cccc(N2CCN(C(=O)CCC(=O)NNc3nc4ccccc4c4nc(C)nn34)CC2C)c1 (stereo not given) |  | inconclusive: 35.5 µM [inhibitor, single point]
55 | CC1(C)CC(N2CCN(C(c3ccccc3)c3ccccc3)CC2)=CC(=[N+]2CCCCC2)C1 |  | active: 6.31 µM
56 | Cc1cc(C)cc(-n2c3ccc(NC(=O)Cc4cccc5ccccc45)cc3c(=O)n2C)c1 |  | inconclusive: 11.2 µM [inhibitor, single point]
57 | Cc1ccc(C)c(Nc2nc3c(S(=O)(=O)c4ccc(Br)cc4)nnn3c3ccsc23)c1 |  | inconclusive: 7.94 µM [inhibitor, partial curve, poor fit]
58 | Cc1nc2cc(-c3cccc(F)c3)nn2c(C)c1CCC(=O)NC(C)c1ccc2c(c1)OCCO2 (stereo not given) |  | inconclusive: 3.16 µM [inhibitor, full curve]
59 | O=S(=O)(Nc1ncccn1)c1ccc(NC(=S)Nc2ccc(Cl)cc2)cc1 |  | inconclusive: 20 µM [inhibitor, single point]
60 | CNC(=O)NC(=O)CSc1ncc(C(F)(F)F)cc1Cl |  | inconclusive: 14.1 µM [inhibitor, single point]
61 | Cc1ccc(Cl)cc1N1CCN(C(=O)CCCn2c(=O)c3cccn3c3cccnc32)CC1 |  | inconclusive: 35.5 µM [inhibitor, single point]
62 | CC(C)c1noc2ncc(C(=O)c3cc(Cl)cc(Cl)c3O)cc12 |  | inconclusive: 11.2 µM [inhibitor, partial curve, poor fit]
63 | COC(=O)c1ccc(CSc2ncn[nH]2)o1 |  | inconclusive: 0.891 µM [inhibitor, full curve, poor fit]
64 | C=C1C=C(C(F)F)n2ncc(C(=O)NCc3ccc(OC)c(OC)c3)c2N1 | inactive: -3.79% | 
65 | Cc1ccc(N2Cc3ccccc3C2=O)cc1 | inactive: -16.7% | 
